Experimental data reported in the supplement of paper PMC3656093.
± gives the standard deviation of the averaged measurements. Whole data set: some 1,900 compounds, median “CD40L-induced NF-kB luciferase activity, plate-corrected, relative to DMSO (0) and IKK inhibitor VII (-100) controls” near 0.032, cut for the lowest 2% near -26. This is one part of the list.

system: BL2-NFkB-Luc; experiment: CD40L-induced NF-kB luciferase activity, plate-corrected, relative to DMSO (0) and IKK inhibitor VII (-100) controls (% normalized activity); higher = more NF-kB reporter activity (less inhibition); conditions: 9.4 µM; stimulus: tCD40L 64 ng/ml; 4.5 h
Method: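 BL2 B cells with a stable NF-kB response-element luciferase reporter (BL2-NFkB-Luc), 384-well. Cells were pre-incubated with compound at 9.4 uM for 1 h at 37 C, then stimulated with 64 ng/ml trimerized CD40L for 4.5 h; luciferase was read with Steady-Glo. Signal was normalised per plate in Genedata (median DMSO neutral control = 0, median IKK inhibitor VII at 50 uM = -100) with Assay Median plate-pattern correction; duplicate plates.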

SMILES	CD40L-induced NF-kB luciferase activity
CCCOc1ccc(-c2cc(C(=O)NCC3CCCO3)c3ccccc3n2)cc1 (configuration not stated)	24.6 ± 4.1
CC1(C)O[C@@H]2C[C@H]3[C@@H]4CCC5=CC(=O)C=C[C@]5(C)[C@@]4(F)[C@@H](O)C[C@]3(C)[C@]2(C(=O)CO)O1	-31.3 ± 5.1
COc1ccc(/C=C\c2nc(=O)c3ccccc3o2)cc1	-4.35 ± 5.1
CC(CCc1oc2ccc(Cl)cc2c1-c1ccc(C)o1)=NO	4.28 ± 0.44
O=C(O)CCCc1ccccc1	3.79 ± 3.9
O=C(CCC1CCCN(C(=O)c2ccsc2)C1)NCc1ccc(F)c(F)c1 (configuration not stated)	6.26 ± 6.2
Cc1cccc(C(=O)c2cccc(C)c2)c1	4.75 ± 5.7
N#C/C(=C/c1ccccc1)C(=O)NCc1ccccc1	-1.8 ± 1.4
COc1cc(C2CC(=O)NC3=C2C(=O)CC(C)(C)C3)ccc1O (configuration not stated)	7.59 ± 2.5
COc1cc(COc2ccc3c(C)c(Cc4ccccc4)c(=O)oc3c2)cc(OC)c1OC	-0.264 ± 1.1
O=C(O)[C@H](Cc1ccccc1)NC(=O)N1CCC(Cc2ccccc2)CC1	1.1 ± 0.14
COc1ccc(CC(=O)NCC2(c3ccc(OC)c(OC)c3)CCOCC2)cc1	0.938 ± 3.2
CC(C)(C)NC[C@H](O)COc1nsnc1N1CCOCC1	3.57 ± 6.9
C[C@]12CCC(=O)C=C1CC[C@@H]1[C@@H]2[C@@H](O)C[C@@]2(C)[C@H]1CC[C@]2(O)C(=O)COC(=O)CCC(=O)O	-23.2 ± 7.1
Fc1cccc(Cc2noc(CN3CCN(c4cnccn4)CC3)n2)c1	2.25 ± 3.4
COc1ccc2c(=O)c(-c3cnn(-c4ccccc4)c3)c(C)oc2c1	1.2 ± 0.96
Cn1c(Oc2ccc3c(c2)OCO3)nc2c1c(=O)n(Cc1ccccc1)c(=O)n2C	-1.64 ± 0.6
CCOc1ccc(C(=O)Nc2ccc(N3CCN(C(C)=O)CC3)cc2)cc1[N+](=O)[O-]	-1.43 ± 3
O=C(Cc1ccccc1)NCC(=O)OCC(=O)c1ccccc1Cl	-3.84 ± 5.3
Cc1cnc(C(=O)N2CCCC(C(=O)c3ccc(Cl)cc3C)C2)cn1 (configuration not stated)	-3.18 ± 1.1
COc1ccc(-c2nc(C)c(C(C)=O)n2O)cc1OC	5.47 ± 2.8
Cc1cc(C=NO)c(C)n1-c1ccc(Br)cc1	-0.84 ± 0.39
CC(=O)NC(NC(=S)N1CCCCCC1)C(Cl)(Cl)Cl (configuration not stated)	-1.31 ± 1.2

SMILES	CD40L-induced NF-kB luciferase activity
COc1cccc(C2CC(=O)C3=C(C2)Nc2ccccc2N(C(=O)CCC(=O)O)C3c2ccc(F)cc2)c1 (configuration not stated)	-1.96 ± 1.7
CC(=O)NC(Cc1ccccc1)C(=O)OCC(=O)c1ccccc1 (configuration not stated)	-1.42 ± 3.2
Cc1ccc2occ(C(=O)c3ccco3)c(=O)c2c1	23.3 ± 3.3
O=C(NC(CO)Cc1ccc([N+](=O)[O-])cc1)C(Cl)Cl (configuration not stated)	1.27 ± 0.15
COc1ccc(C(=O)/C=C/c2ccc(OC(=O)c3cc(OC)c(OC)c(OC)c3)cc2)cc1	-7.39 ± 2.8
O=C1NC2(Nc3ccccc31)C(=O)Nc1ccc(Br)cc12 (configuration not stated)	1.79 ± 3.5
COc1ccc2c(c1OC)C(=O)NC(C)=C(C(=O)OC(C)(C)C)C2O (configuration not stated)	-5.18 ± 8.2
Cc1nc(C(=O)Nc2ccccc2Cl)cc2c1[nH]c1ccccc12	10 ± 1.4
CCCCC[C@H](O)/C=C/[C@@H]1[C@@H](C/C=C\CCCC(=O)O)[C@@H](O)C[C@H]1O	-2.36 ± 2.1
CC(COc1ccccc1)N(CCCl)Cc1ccccc1 (configuration not stated)	-2.44 ± 8.4
CCCNC(C)C(=O)Nc1ccccc1C (configuration not stated)	1.52 ± 0.94
COc1ccc(CN(CCN(C)C)c2ccccn2)cc1	0.829 ± 0.31
CCOC(=O)C(Cc1cc(C(C)=O)ccc1OC(C)C)C(=O)OCC	2.32 ± 2.5
CC(C)(C)N(Cc1ccccc1)C(=O)c1ccc(Br)o1	-1.84 ± 1.1
COc1cc(C2NCCc3c2[nH]c2ccccc32)ccc1OC(C)C (configuration not stated)	0.685 ± 0.022
NC(=O)N1c2ccccc2C=Cc2ccccc21	-2.95 ± 4.9
COc1ccc2oc(-c3ccco3)cc(=O)c2c1	119 ± 6.9
CCOc1cc2oc(=O)c3c(c2cc1Cl)CCC3	4.23 ± 1.7
COc1cc2c(cc1OC)C(c1cc3ccccc3oc1=O)=NC(C)(C)C2	-0.782 ± 0.12
CCNC(=O)C12CCC(C)(C(=O)O1)C2(C)C (configuration not stated)	2.51 ± 3.4
CN(C)CCN(Cc1cccs1)c1ccccn1	-0.4 ± 1.3
NC(=O)[C@@H]1[C@@H]2C(=O)N(c3ccc(F)cc3)C(=O)[C@@H]2[C@H]2C=Cc3ccccc3N21	0.397 ± 0.3
CCOC(=O)C1(CCCc2ccccc2)CCN(C2CCN(C(C)=O)CC2)CC1	-2.72 ± 0.18

SMILES	CD40L-induced NF-kB luciferase activity
COc1ccc2[nH]c3c(c2c1)CCNC3C1CC=C(C)CC1 (configuration not stated)	2.73 ± 1.5
CN(Cc1ccccc1)CC(O)COc1ccc(CNCc2cccnc2)cc1 (configuration not stated)	-2.49 ± 2.2
Cc1cc(C(=O)Nc2ccccc2C(=O)N2CCCCC2)ccc1[N+](=O)[O-]	-2.36 ± 13
COc1cc(=O)n(C)c2ccccc12	0.654 ± 4.3
COc1ccc(N2C(=O)C3CCCN3C2=O)cc1 (configuration not stated)	3.27 ± 8.9
O=Cc1ccccc1Oc1ccccc1	5.78 ± 6.1
COc1cc(-c2cccs2)cc(=O)c2c(C)oc(C)c12	-1.01 ± 0.32
CN(C)c1ccc(Nc2c3c4c(cccc4n(C)c2=O)C(=O)c2ccccc2-3)cc1	-14.7 ± 0.21
O=C(O)COc1ccc2occ(C(=O)c3ccccc3)c2c1	15 ± 1.8
COC(=O)c1sccc1NC(=O)Nc1ccccc1F	9.6 ± 1.5
CCN(CC)c1ccc([C@H]2[C@@H]3CCCC[C@]3(O)CCN2CC(=O)NCc2ccco2)cc1	-2.56 ± 3
CC(C)OC(=O)c1ccc(NC(=O)c2cncc(Br)c2)cc1	4.22 ± 5
O=C(NC1CCCCC1)c1cc2nc(-c3ccco3)cc(C(F)(F)F)n2n1	1.55 ± 1.8
COc1ccc2c(c1OC)C(=O)N1C2SC[C@H]1C(=O)NC1CC(C)(C)NC(C)(C)C1 (some centres not stated)	-2.01 ± 0.25
COc1ccc(C(=O)COc2ccc(F)cc2)c(O)c1	50.7 ± 3.5
O=C(c1ccc(-c2ccccc2)c(F)c1)C1CCCN(C(=O)c2cncs2)C1 (configuration not stated)	1.16 ± 0.81
O=C(/C=C/c1ccc(F)cc1)NC(=S)N1CCCCC1c1cccnc1 (configuration not stated)	9.18 ± 3.1
Cc1nc(NC(CC(C)C)C(=O)O)c2nc(C)oc2n1 (configuration not stated)	4.53 ± 5.9
Cn1cc(CN2CCN(CCO)CC2)c(-c2ccc(Oc3ccccc3)cc2)n1	2.68 ± 1.8
O=C(/C=C/c1ccccc1)c1ccccc1	28.7 ± 2.6
O=C1Cc2ccccc2C(c2ccccc2)N1 (configuration not stated)	2.74 ± 0.35
CCN1CCN(C(=S)c2ccc(OC)cc2)CC1	-3.84 ± 2
Cc1ncc([N+](=O)[O-])n1CCO	-1.91 ± 3.7

SMILES	CD40L-induced NF-kB luciferase activity
CCN(CC)CC#CCOC(=O)C(O)(c1ccccc1)C1CCCCC1 (configuration not stated)	-4.02 ± 0.34
O=C(COc1ccc(F)cc1)OCCN1CCOCC1	0.903 ± 1.5
O=C1CC[C@@H](CN(Cc2ccccc2)Cc2cn[nH]c2-c2cc3ccccc3o2)N1	-5.37 ± 1.6
O=C(O)c1ccc(C(=O)C(=O)c2ccccc2)cc1	-6.47 ± 15
CCc1cc2c(=O)c(-c3nc(C)cs3)coc2cc1OC(C)C(=O)NCCO (configuration not stated)	11.6 ± 4.8
C=CCn1c(SCC(=O)NC2CCCCC2)nc2ccccc2c1=O	3.45 ± 6.7
COc1ccc2oc(=O)c(C(=O)Nc3ccccc3-c3ccccc3)cc2c1	-2.83 ± 0.54
CCN(CC)CCNC(=O)c1cc(S(C)(=O)=O)ccc1OC	-0.512 ± 0.56
N#CC(C(N)=O)=c1ccc2c(c1)N1C3=C(CCCC3)CC3CCCCC31N=2 (configuration not stated)	-1.04 ± 4.6
O=C(CCCN1CC=C(n2c(=O)[nH]c3ccccc32)CC1)c1ccc(F)cc1	-2.92 ± 5.7
COc1cc2oc(-c3ccc(O)cc3)cc(=O)c2c(OC)c1O	2.41 ± 4.4
CN/C(=C/[N+](=O)[O-])NCCSCc1ccc(CN(C)C)o1	-2.15 ± 1.7
COc1ccc2cc(CCC(C)=O)ccc2c1	59.9 ± 3.9
CC(=O)N(CCC(Cc1ccccc1)c1ccc2c(c1)OCO2)Cc1ccc(Cl)cc1 (configuration not stated)	-5.42 ± 2.8
O=C(O)c1ccccc1OCCOc1ccccc1	0.457 ± 1.1
CCn1cc(C(=O)O)c(=O)c2ccc(C)nc21	-0.59 ± 2
C#CCN(C)Cc1ccccc1	0.832 ± 1.9
O=c1c2ccccc2nnn1Cc1cccc2ccccc12	0.833 ± 1.5
CC(=O)N1CC23C=CC(CC2CC12CCCCCC2)O3 (configuration not stated)	-6.1 ± 1.8
O=C(O)C1[C@H]2C(=O)N(C3CCCC3)C[C@]23C=C[C@H]1O3 (some centres not stated)	-0.855 ± 0.28
CCc1cc2c(=O)c(-c3nc4ccccc4n3C)coc2c(CN2CCN(C)CC2)c1O	-3.98 ± 2.5
CC(C)(C)OC(=O)NCCC(=O)Oc1ccc2ccc(=O)oc2c1	-4.48 ± 6
CC(=O)Oc1ccc(C2OC(=O)c3ccccc3N2C(C)=O)cc1 (configuration not stated)	-32.9 ± 1

SMILES	CD40L-induced NF-kB luciferase activity
COc1ccc(OC)c(-n2c(Cn3c(-c4ccccn4)nc4ccccc43)n[nH]c2=S)c1	-3.66 ± 2
COc1cc2nc(N3CCN(C(=O)c4ccco4)CC3)nc(N)c2cc1OC	-0.292 ± 0.47
COc1ccc2c(c1O)Cc1ccccc1C2=O	44.8 ± 13
CC(=O)[C@@H]1[C@@H](C(=O)c2ccc(C)cc2)[C@]2(C(=O)Nc3ccccc32)[C@H]2C=Cc3cc(F)ccc3N12	3.22 ± 1.4
O=c1oc2c(CN3CCCCC3)c(O)ccc2c2c1CCCCC2	3.37 ± 7.8
CC1CCCc2sc3ncn(N)c(=N)c3c21 (configuration not stated)	-2.53 ± 1.9
COC(=O)c1ccc(C(=O)OC)c(NC(=O)C(C)C)c1	-1.03 ± 0.61
O=C(c1cccnc1)N1N=C(C2CC2)CC1(O)C(F)(F)F (configuration not stated)	1.25 ± 2.2
Nc1ccc(S(=O)(=O)c2ccc(N)cc2)cc1	-2.51 ± 1.8
OCCN1CCN(CCCN2c3ccccc3Sc3ccc(Cl)cc32)CC1	-0.695 ± 1.4
COC(=O)C1=C(C)N(C)C(=S)NC1c1ccc(Cl)cc1 (configuration not stated)	-1.51 ± 7.8
O=C(NNC(=O)c1cccs1)c1ccco1	-1.85 ± 2.4
Cn1nnnc1SCC1=C(C(=O)O)N2C(=O)[C@@H](NC(=O)[C@H](O)c3ccccc3)[C@H]2SC1	0.9 ± 1.8
CCCC(=O)O[C@]1(C(=O)COC(C)=O)CC[C@H]2[C@@H]3C[C@H](F)C4=CC(=O)C=C[C@]4(C)[C@@]3(F)[C@@H](O)C[C@@]21C	-17.6 ± 1.6
CC(=O)OCC#CCSc1nc2ccccc2n1C	6.54 ± 2.4
O=C(O)c1ccccc1C(=O)OCCCCOC(=O)c1ccccc1C(=O)O	-5.58 ± 0.63
CC(=O)Nc1ccc2[nH]c(C)c(CC=C(Cl)Cl)c(=O)c2c1	-5.15 ± 0.9
O=c1cc(-c2ccccc2)oc2cc(OCc3ccccc3)cc(O)c12	3.36 ± 4.5
O=C(COc1ccc2c(-c3ccccc3)cc(=O)oc2c1)NCc1cccs1	10.3 ± 1.1
COc1cc(CNc2nnnn2C)ccc1OCc1ccc(F)cc1Cl	-2.11 ± 11
